In the supplement of paper PMC10126150 one finds switch fluorescence ratio data, which are given here for 79 sequences.

Values marked as one replicate rest on one cluster of the flow cell; about a third of the high ones do not repeat.

The test system of the series is ATP. In words: switch fluorescence ratio, 500 uM ATP over buffer (Cy3 cluster intensity, sum of 5 cycles each) (fold (ratio)); higher = stronger signal-on switching upon ATP binding; sequences stand for … in TCGTCGGCAGCGTCAGATGTGTATAAGAGACAGTTTTTTTTTTTTTTTTTTTTTTTTT…TC. Conditions: aptamer strand: ATP DNA aptamer (quencher-CACCTGGGGGAGTATTGCGGAGGAAGG + anchor), 100 nM annealed; ATP concentration: 500 uM; one replicate. The method, boiled down: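 Switching-strand clusters labelled with Cy3 on a modified Illumina MiSeq flow-cell were annealed to 100 nM quencher-labelled ATP aptamer, imaged in selection buffer, and re-imaged after 15 min with 500 uM ATP at 22 °C. This was done over five cycles with NaOH stripping and re-annealing in between. The fluorescence ratio is summed target-cycle over summed buffer-cycle Cy3 intensity per cluster, averaged per switch-domain sequence, excluding clusters outside 100-1000 RFU.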
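Also: ATP exposure 15 min at 22 °C before imaging.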

As for ATGAGCGATG, the switch fluorescence ratio was determined as 1.
Consider TTATATGGGC, for which the switch fluorescence ratio was 0.97.
Consider GGGTTGCGCC, for which the switch fluorescence ratio was found to be 1.
Under AAATTATTGC stands 0.976; under AATGACGGAA, 1.05; under CCGGTTGACA, 1.03.
As to AATGTAGGTT, the switch fluorescence ratio was 1.
The result for TTCTAAACAA reads 1.02.
The result for AGGTCAGATG reads 0.974; that for GAAGCGTCTC, 1.11; that for AAACATGCAA, 1.1.
On to TCCCTCGTA, for which the switch fluorescence ratio turned out to be 1.02.
Turning to TGTGGTGAGA, the switch fluorescence ratio is 0.971.
Under TATTTCTCTC stands 1.05; under ACATGGATGG, 1; under TCAAAGAC, 1.02.
Under GGCTGACATA stands 1.01; under TTGGTGCTA, 1.
TGAAGGAATG: the switch fluorescence ratio worked out at 1.04.
The result for CTTTTGGA reads 0.989; that for CATATCCAAG, 0.988; that for CGCCGGGTAA, 1.02.
The result for GAGCGTTAGT reads 1.01.
AACGCTGTGT: the switch fluorescence ratio was 0.983.
Under GGCACATTGT stands 0.988; under AGAGGGTGGA, 1.
As to TTGTGACGTA, the switch fluorescence ratio was 0.957.
Under GGGCGCTTTT stands 1.3; under GATCAAACTG, 1.04; under AGGCCGGACG, 0.959.
Under TTCTCCTTGC stands 1.36; under ACTCTTGCTA, 1.3; under CGCGCGCTCT, 0.995.
As for TCTACCAA, the switch fluorescence ratio was determined as 1.35.
As for GGCGCACAGA, the switch fluorescence ratio is 0.996.
The result for ACAGACCCGG reads 0.987; that for GCTGATCATC, 0.976.
The result for ATGTGCGC reads 0.962; that for TTCATGCCCA, 0.959.
For the sequence CAGCTTGAGG, the switch fluorescence ratio was determined as 0.98.
Take GCGAAGCGAT: the switch fluorescence ratio amounted to 1.2.
With TTAACCTTA, the switch fluorescence ratio was 1.13.
The result for CGATGAGATA reads 1.04.
With CATCGATCAT, the switch fluorescence ratio came to 0.974.
The result for TGTATACTGG reads 0.975; that for CGTCGTTCCT, 1.02; that for AATACCACAC, 1.21.
Under TTGTTCGAGT stands 0.975.
The result for TCCCCCTTT reads 1.08.
On to TGGATAAAGG, for which the switch fluorescence ratio came to 1.06.
Under GTGGGCACCT stands 1; under GAGCTTGGT, 0.97.
Under GCGGGCTTGC stands 0.979.
GATAAACCAG: the switch fluorescence ratio came to 1.05.
For the sequence ACCGTTGTCA, the switch fluorescence ratio was 0.982.
Turning to GGCCTGGACT, the switch fluorescence ratio was 0.987.
The result for TGTACTATAG reads 1; that for TGGCTTTTG, 0.967.
The result for CTACGGTCGT reads 1.02; that for GGTAACGCT, 1.03; that for ATTTCGTGAA, 1.
The result for ACTTTCCTAA reads 0.999; that for CATCGGTAGT, 1.03.
Regarding ACTAAAATTG, the switch fluorescence ratio was found to be 0.962.
As for GAAAGGGGG, the switch fluorescence ratio came out at 0.998.
Turning to TTTCGGGTGT, the switch fluorescence ratio stood at 1.02.
The result for ACTGAGCTTT reads 1.04; that for TATCCACTCT, 1.02.
As to ATACGTCTCT, the switch fluorescence ratio amounted to 1.03.
With TGACTCATAG, the switch fluorescence ratio was 1.03.
Under AGGCGCTATC stands 1.25; under TCGCCGTCAT, 1.02.
Under TGCGAATGG stands 0.966.
As to CCGAGTTTCG, the switch fluorescence ratio came out at 1.04.
Under GCATCTGACA stands 1.03; under CGGTATTGC, 1.06.
Under ACTCAGAAT stands 1; under CACTCCGAGT, 1.36; under AGCGGAATTT, 0.988.
